The labels stand for the following.
B1: LINE1-mini (parent)
chain: GGCAGAGCUCAACACAGCGUGGCAAAGUGGCUGUGGCUAGACUGCC

The source gives no read counts; variants with many changes may rest on few reads.

The variants in the data set derive from B1. Nature of the data set: self-cleavage, relative activity (ratio to wild type); higher = more cleavage; in vitro, sequencing; the parent is a self-cleaving ribozyme.
As for GGCAGAGCUCAACACAGCGUGGCAAAGUGCAUGUGCCUAGACUGUC [G30C C31A G36C C45U], the self-cleavage worked out at 0.18.

Turning to GGCAGAGCUCAACACAGCGUGGCAAAGUGCCUGUAGCCAGACUGCC [G30C G35A U38C], the self-cleavage stood at 0.16.

For GGCAGAGCUCAACACAGCGUGGCAAAGUGACUGUGGCAAGACUGCG [G30A U38A C46G], the self-cleavage was determined as 0.73.

As for GGCAGAGCUCAACACAGCGUGGCAAAGUGCCUGGGGCAAGACUGCC [G30C U34G U38A], the self-cleavage was found to be 0.06.

Take GGCAGAGCUCAACACAGCGUGGCAAAGUGCGUGUGGCUAGCCUUCC [G30C C31G A41C G44U]: the self-cleavage is 0.06.

For the variant GGCAGAGCUCAACACAGCGUGGCAAAGUGUCUGUGGCUAGGCUGCU [G30U A41G C46U], the self-cleavage is 0.02.

GGCAGAGCUCAACACAGCGUGGCAAAGUGCCUGUGGCUACACUUCC [G30C G40C G44U]: the self-cleavage was determined as 0.07.

GGCAGAGCUCAACACAGCGUGGCAAAGUGCCUGUGGCUAGGCUGCA [G30C A41G C46A]: the self-cleavage came to 0.06.

With GGCAGAGCUCAACACAGCGUGGCAAAGUGUCUGUGGCUUGACUGAC [G30U A39U C45A], the self-cleavage is 0.33.

For GGCAGAGCUCAACACAGCGUGGCAAAGUGCCUCUGGGUAGACUGCC [G30C G33C C37G], the self-cleavage was 0.02.

For the variant GGCAGAGCUCAACACAGCGUGGCAAAGUGUUGGUGGCUAGACUGCC [G30U C31U U32G], the self-cleavage was found to be 0.03.

As for GGCAGAGCUCAACACAGCGUGGCAAAGUGCCUGUGGCAAGAAUGGC [G30C U38A C42A C45G], the self-cleavage was determined as 0.

Take GGCAGAGCUCAACACAGCGUGGCAAAGUGCCUAUGGCUAGAGUGCC [G30C G33A C42G]: the self-cleavage turned out to be 0.01.

For the variant GGCAGAGCUCAACACAGCGUGGCAAAGUGUCUGUGGCUUGCCUGCC [G30U A39U A41C], the self-cleavage came out at 0.05.

As for GGCAGAGCUCAACACAGCGUGGCAAAGUGACUGUGGCUAUACGGCC [G30A G40U U43G], the self-cleavage was 0.07.

For GGCAGAGCUCAACACAGCGUGGCAAAGUGCCUGUCGCUCGACUGCC [G30C G35C A39C], the self-cleavage was 0.14.

In the case of GGCAGAGCUCAACACAGCGUGGCAAAGUGCGUGUGGCUAGACUGCU [G30C C31G C46U], the self-cleavage was 0.15.

Regarding GGCAGAGCUCAACACAGCGUGGCAAAGUGACGGUGGAUAAACGGCC [G30A U32G C37A G40A U43G], the self-cleavage was found to be 0.05.

For GGCAGAGCUCAACACAGCGUGGCAAAGUGACUGUGGCUAGACAGCG [G30A U43A C46G], the self-cleavage is 0.04.

On to GGCAGAGCUCAACACAGCGUGGCAAAGUGCCUGUCGCUAAACUGCC [G30C G35C G40A], for which the self-cleavage is 0.09.

In the case of GGCAGAGCUCAACACAGCGUGGCAAAGUGUCUGUGGAUCGACUGCC [G30U C37A A39C], the self-cleavage was found to be 0.02.

In the case of GGCAGAGCUCAACACAGCGUGGCAAAGUGCCUGUGGCUUGACGGCC [G30C A39U U43G], the self-cleavage amounted to 0.01.

For GGCAGAGCUCAACACAGCGUGGCAAAGUGUCUGUGGCUAGCGUGCC [G30U A41C C42G], the self-cleavage came out at 0.03.

With GGCAGAGCUCAACACAGCGUGGCAAAGUGCAUGUGUCUAGACUGCC [G30C C31A G36U], the self-cleavage was 0.2.

For GGCAGAGCUCAACACAGCGUGGCAAAGUGCCUGUGGCUACACUGCG [G30C G40C C46G], the self-cleavage was 0.04.

Turning to GGCAGAGCUCAACACAGCGUGGCAAAGUGCCUGUGGCUAGAUUUCC [G30C C42U G44U], the self-cleavage is 0.05.

For GGCAGAGCUCAACACAGCGUGGCAAAGUGCCUGUGGCUAUAGAGCC [G30C G40U C42G U43A], the self-cleavage came out at 0.

As to GGCAGAGCUCAACACAGCGUGGCAAAGUGCCAGGGACUAGACUGCC [G30C U32A U34G G36A], the self-cleavage was found to be 0.03.

Take GGCAGAGCUCAACACAGCGUGGCAAAGUGACCGUGGCUAGACUGCG [G30A U32C C46G]: the self-cleavage was 0.07.

GGCAGAGCUCAACACAGCGUGGCAAAGUGCCUGUAGCUAGAGUGCC [G30C G35A C42G]: the self-cleavage is 0.05.

Regarding GGCAGAGCUCAACACAGCGUGGCAAAGUGCCUGUCGCUAGAGUGCC [G30C G35C C42G], the self-cleavage was 0.15.

Regarding GGCAGAGCUCAACACAGCGUGGCAAAGUGCCAUUGGCUAGACUGCC [G30C U32A G33U], the self-cleavage was determined as 0.05.

As for GGCAGAGCUCAACACAGCGUGGCAAAGUGACGGUGGCUAGAGUGCA [G30A U32G C42G C46A], the self-cleavage stood at 0.05.

Take GGCAGAGCUCAACACAGCGUGGCAAAGUGUUUGUGGCUAGACUGCA [G30U C31U C46A]: the self-cleavage was 0.01.

On to GGCAGAGCUCAACACAGCGUGGCAAAGUGUAUGUGGCCAGACUUCC [G30U C31A U38C G44U], for which the self-cleavage was 0.09.

As to GGCAGAGCUCAACACAGCGUGGCAAAGUGACUGGGGCUAGUCUGCC [G30A U34G A41U], the self-cleavage came out at 0.05.

Regarding GGCAGAGCUCAACACAGCGUGGCAAAGUGUUUGUGGCUCGACUGCC [G30U C31U A39C], the self-cleavage worked out at 0.02.

On to GGCAGAGCUCAACACAGCGUGGCAAAGUGCCUGUGGCUUGUUUGCC [G30C A39U A41U C42U], for which the self-cleavage turned out to be 0.04.

As for GGCAGAGCUCAACACAGCGUGGCAAAGUGUAUGUGGCGAGACUGCC [G30U C31A U38G], the self-cleavage turned out to be 0.02.

Turning to GGCAGAGCUCAACACAGCGUGGCAAAGUGUGUGUGGCUAGACUGCU [G30U C31G C46U], the self-cleavage was 0.05.

Consider GGCAGAGCUCAACACAGCGUGGCAAAGUGUCUGUGGCUAGUAUGCC [G30U A41U C42A], for which the self-cleavage came out at 0.02.

In the case of GGCAGAGCUCAACACAGCGUGGCAAAGUGACCGUGGCUAGAUCGCC [G30A U32C C42U U43C], the self-cleavage was found to be 0.39.

Turning to GGCAGAGCUCAACACAGCGUGGCAAAGUGCCUAUGCCUAGACUGCC [G30C G33A G36C], the self-cleavage came to 0.05.

As to GGCAGAGCUCAACACAGCGUGGCAAAGUGCCUGUGGCUAGAGUGCA [G30C C42G C46A], the self-cleavage was 0.13.

On to GGCAGAGCUCAACACAGCGUGGCAAAGUGCCUGUGGCUCGACCGCC [G30C A39C U43C], for which the self-cleavage stood at 0.07.

With GGCAGAGCUCAACACAGCGUGGCAAAGUGACUGUGGCCAGAGUGCC [G30A U38C C42G], the self-cleavage amounted to 0.03.

With GGCAGAGCUCAACACAGCGUGGCAAAGUGACUGAGACUAGACUGCC [G30A U34A G36A], the self-cleavage is 0.08.

Regarding GGCAGAGCUCAACACAGCGUGGCAAAGUGCCUAUGGCGAGACUGCC [G30C G33A U38G], the self-cleavage was found to be 0.03.

On to GGCAGAGCUCAACACAGCGUGGCAAAGUGCCUGUGUCUACACUGCC [G30C G36U G40C], for which the self-cleavage came to 0.07.

In the case of GGCAGAGCUCAACACAGCGUGGCAAAGUGUCUGUGGAUAGACUGCA [G30U C37A C46A], the self-cleavage was 0.05.

For the variant GGCAGAGCUCAACACAGCGUGGCAAAGUGCGUGUGGCUAGACUGUC [G30C C31G C45U], the self-cleavage stood at 0.07.

Consider GGCAGAGCUCAACACAGCGUGGCAAAGUGCCGGUGGGUAGACUGCA [G30C U32G C37G C46A], for which the self-cleavage is 0.03.

Turning to GGCAGAGCUCAACACAGCGUGGCAAAGUGCCUGUGCCUAGACUCCC [G30C G36C G44C], the self-cleavage was 0.01.

In the case of GGCAGAGCUCAACACAGCGUGGCAAAGUGUGUGUGGCUAGAUUGCC [G30U C31G C42U], the self-cleavage amounted to 0.08.

GGCAGAGCUCAACACAGCGUGGCAAAGUGCCGGUGGCUCGACUGCC [G30C U32G A39C]: the self-cleavage came out at 0.08.

In the case of GGCAGAGCUCAACACAGCGUGGCAAAGUGCCUGUGGGUAAACUGCC [G30C C37G G40A], the self-cleavage was 0.09.
